Test results from US20220411514A1, “ANTI-GAL3 ANTIBODIES AND METHODS OF USE FOR INSULIN RESISTANCE” (TrueBinding, Inc., priority 2021, published 2022).

Key:
[1] = target: T1, hGal3 peptide (Homo sapiens, UniProt P17931); experiment: Gal3 peptide library binding ELISA (Example 2)
T1 construct: a library of 24 amino acid peptides representing portions of Gal3
Method: To identify the epitopes to which Gal3 antibodies with and without Gal3-INSR blocking activity bound, a library of 24 amino acid peptides representing portions of Gal3, depicted in FIG. 18, was produced and the ability of each peptide to bind Gal3 antibodies was evaluated by ELISA. At least 2 μg/ml of hGal3 peptide in 50 μl of PBS or 0.1 μg/ml of full-length human Gal3 protein (GenScript) and human Galectin-3 protein (Acro Biosystems, GA3-H5129) were diluted in PBS (Corning, 21-030-CM) to concentrations of at least 2 μg/ml or 0.1 μg/ml, respectively, and added to the wells of a 96-well ELISA plate (Thermo Fisher, 44-2404-21). After incubating the plate at 4° C. overnight, the plate was washed three times with PBST (PBS with 0.05% Tween 20 [VWR, 0777]). The plate was then blocked for an hour with 2% BSA (EMD Millipore, 126609) in PBST at room temperature with gentle rocking. Thereafter, the 2% BSA in PBST was discarded and human Galectin-3 hybridoma supernatants or antibodies were diluted in 2% BSA in PBST to concentrations of at least 0.1 μg/ml and added to the wells. The plate was incubated for an hour at room temperature with gentle rocking and then washed three times with PBST. Afterwards, Goat Anti-Mouse IgG-HRP (Jackson ImmunoResearch, 115-036-1461) or Goat Anti-Rat IgG HRP (Abcam, ab205720) diluted in 2% BSA in PBST (1:4000) were added to the wells. The plate was incubated for 30 minutes to 1 hour at room temperature with gentle rocking and then washed three times with PBST. TMB substrate (Thermo Scientific, 34029) was then added to each well. The reaction was stopped with 1M HCl (JT Baker, 5620-02) and read using a plate reader (Molecular Devices) at absorbance of 450 nm.

[2] = tested on: Human Gal3 peptides; experiment: Gal3 peptide binding ELISA (Example 8); conditions: antibody 5 μg/mL
Method: Gal3 peptide binding activity of additional exemplary anti-Gal3 antibodies was assessed with the same peptides as described in FIG. 18 (SEQ ID NOs: 3-26). Human Gal3 peptides (LifeTein, custom order) and human Gal3 proteins (R&D Systems, 8259-GA; TrueBinding, QCB200349) were diluted in PBS (Corning, 21-030-CM) to concentrations of at least 100 μg/mL (peptides) or 1 μg/mL (proteins), and added to the wells of several 96-well ELISA plates (Thermo Fisher, 44-2404-21). After incubating the plates at 4° C. overnight, the plates were washed three times with PBST (PBS with 0.05% Tween 20 [VWR, 0777]). The plates were then blocked for an hour with 2% BSA (EMD Millipore, 126609) in PBST at room temperature with gentle rocking. Thereafter, the 2% BSA in PBST was discarded and Gal3-binding antibodies (reformatted hIgG4 [S228P]) were diluted in 2% BSA in PBST to concentrations of 5 μg/mL and added to the wells. The plates were incubated for an hour at room temperature with gentle rocking and then washed three times with PBST. Afterwards, Peroxidase AffiniPure F(ab′)2 Fragment Goat Anti-Human IgG (H+L) polyclonal antibody (Jackson ImmunoResearch, 109-036-003), was diluted in 2% BSA in PBST (1:4000) and added to the wells. The plates were incubated for 1 hour at room temperature with gentle rocking and then washed three times with PBST. TMB substrate (Thermo Scientific, 34029) was then added to each well. The reaction was stopped with 1M HCl (JT Baker, 5620-02) and read using a plate reader (Molecular Devices) at absorbance of 450 nm.

Row | Molecule | binding to Gal3 peptide 6 (amino acids 51-70, SEQ ID NO: 8) [1] | binding to Gal3 peptide 7 (amino acids 61-80, SEQ ID NO: 9) [1] | binding to any of the tested Gal3 peptides [2] | binding to Gal3 peptide 1 (amino acids 1-20, SEQ ID NO: 3) [1]
1 | 6B3.2D3: anti-Gal3 antibody (antibody, 6B3.2D3 heavy chain peptide sequence; 6B3.2D3 light chain peptide sequence, anti-Gal3 antibody) heavy: QVQLKQSGPGLVQPSQSLSITCTVSGFSLTSYGVHWVRQPPGKGLEWLGVIWSGGSTDYNAAFISRLSISKDNSKSQVFFKMNSLQADDTAIYYCAKGPYDYDLGWFAYWGQGTLVTVSAASTKGPSVFPLAPCSRSTSESTAALGCLVKDYFPEPVTVSWNSGALTSGVHTFPAVLQSSGLYSLSSVVTVPSSSLGTKTYTCNVDHKPSNTKVDKRV[in this place human IgG4 Fc with S228P (EU numbers)] light: SIVMTQTPKFLLVSAGDRVTITCKASQSVSNDVAWYQQKPGQSPKLLIYYASNRYTGVPDRFTGSGYGTDFTFTISTVQAEDLAVYFCQQDYTSPYTFGGGTKLEIKRTVAAPSVFIFPPSDEQLKSGTASVVCLLNNFYPREAKVQWKVDNALQSGNSQESVTEQDSKDSTYSLSSTLTLSKADYEKHKVYACEVTHQGLSSPVTKSFNRGEC |  |  | not found to bind | 
2 | 13G4.2F8: anti-Gal3 antibody (antibody, 13G4.2F8 heavy chain peptide sequence; 13G4.2F8 light chain peptide sequence, anti-Gal3 antibody) heavy: QVQLQQPGAELVKPGASVKLSCKASGYTFTSYWMHWVKQRPGQGLEWIGMIHPNSGSTDYNEKFKNKATLNVDKSSSTAYIQLSSLTSEDSAVYYCTRWGIYYYARDYWGQGTTLTVSSASTKGPSVFPLAPCSRSTSESTAALGCLVKDYFPEPVTVSWNSGALTSGVHTFPAVLQSSGLYSLSSVVTVPSSSLGTKTYTCNVDHKPSNTKVDKRV[in this place human IgG4 Fc with S228P (EU numbers)] light: DIVMTQSQKFMSTSVGERVSITCKASQNVGTNVAWYQQKAGQSLELLIYGASNRHTGVPDRFTGSGSGTDFTLTITNVQSEDMTNYFCEQYSNFPLTFGAGTKLELKRTVAAPSVFIFPPSDEQLKSGTASVVCLLNNFYPREAKVQWKVDNALQSGNSQESVTEQDSKDSTYSLSSTLTLSKADYEKHKVYACEVTHQGLSSPVTKSFNRGEC |  |  | not found to bind | 
3 | 6H6.2D6: anti-Gal3 antibody (antibody, 6H6.2D6 heavy chain peptide sequence; 6H6.2D6 light chain peptide sequence, anti-Gal3 antibody) heavy: QIQLVQSGPELKKPGETVKISCKASGYTFTTYGMSWVKQAPGKGLKWMAWINTYSGVPTYADDFKGRFAFSLETSASTAYLQINNLTNEDTATYFCARGPYAMDYWGQGTSVTVSSASTKGPSVFPLAPCSRSTSESTAALGCLVKDYFPEPVTVSWNSGALTSGVHTFPAVLQSSGLYSLSSVVTVPSSSLGTKTYTCNVDHKPSNTKVDKRV[in this place human IgG4 Fc with S228P (EU numbers)] light: DIQMTQTTSSLSASLGDRVTISCSASQGISNYLNWYQQKPDGTVKLLIYYTSSLHSGVPSRFSGSGSGTDYSLTISNLEPEDIATYYCQQYSELPYTFGSGTKLEIKRTVAAPSVFIFPPSDEQLKSGTASVVCLLNNFYPREAKVQWKVDNALQSGNSQESVTEQDSKDSTYSLSSTLTLSKADYEKHKVYACEVTHQGLSSPVTKSFNRGEC |  | bound |  | bound

Other lines, results leading:

Row | binding to Gal3 peptide 6 (amino acids 51-70, SEQ ID NO: 8) [1] | binding to Gal3 peptide 7 (amino acids 61-80, SEQ ID NO: 9) [1] | binding to any of the tested Gal3 peptides [2] | binding to Gal3 peptide 1 (amino acids 1-20, SEQ ID NO: 3) [1] | Molecule
4 | bound | bound |  |  | 19D9.2E5: anti-Gal3 antibody (antibody, 19D9.2E5 heavy chain peptide sequence; 19D9.2E5 light chain peptide sequence, anti-Gal3 antibody) heavy: QIQLVQSGPELKKPGETVKISCKASGYTFTTYGMGWVKQAPGKGLKWMGWINTYSGVPTYADDFKGRFAFSLETSTSTAYLQINNLKNEDMATYFCATPYEYDGAYWGQGTLVTVSAASTKGPSVFPLAPCSRSTSESTAALGCLVKDYFPEPVTVSWNSGALTSGVHTFPAVLQSSGLYSLSSVVTVPSSSLGTKTYTCNVDHKPSNTKVDKRV[in this place human IgG4 Fc with S228P (EU numbers)] light: DVVMTQTPLTLSVTIGQPASISCKSSQSLLHSDGKTYLNWLLQRPGQPPKRLMYLVSTLDSGVPDRFTGSGSGTDFTLKISRVEAEDLGVYYCWQGTHFPLTFGAGTKPERTVAAPSVFIFPPSDEQLKSGTASVVCLLNNFYPREAKVQWKVDNALQSGNSQESVTEQDSKDSTYSLSSTLTLSKADYEKHKVYACEVTHQGLSSPVTKSFNRGEC
5 | bound | bound |  |  | 13H12.2F8: anti-Gal3 antibody (antibody, 13H12.2F8 heavy chain peptide sequence; 13H12.2F8 light chain peptide sequence, anti-Gal3 antibody) heavy: QIQLVQSGPELKKPGETVKISCKASGYTFTTYGMSWVKQAPGKGLKWMGWINTYSGVPTYADDFKGRFAFSLETSASTAYLQINNLKNEDTATYFCAVPYEYDGAYWGQGTLVTVSAASTKGPSVFPLAPCSRSTSESTAALGCLVKDYFPEPVTVSWNSGALTSGVHTFPAVLQSSGLYSLSSVVTVPSSSLGTKTYTCNVDHKPSNTKVDKRV[in this place human IgG4 Fc with S228P (EU numbers)] light: DVVMTQTPLTLSVTIGQPASISCKSSQSLFHSDGKTYLNWLLQRPGQSPKRLIYLVSKLDSGVPDRFTGSGSGTDFTPKISRVEDEDLGVYYCWQGTHFPLTFGAGTKLEMKRTVAAPSVFIFPPSDEQLKSGTASVVCLLNNFYPREAKVQWKVDNALQSGNSQESVTEQDSKDSTYSLSSTLTLSKADYEKHKVYACEVTHQGLSSPVTKSFNRGEC
6 |  |  | not found to bind |  | 24D12.2H9: anti-Gal3 antibody (antibody, 24D12.2H9 heavy chain peptide sequence; 24D12.2H9 light chain peptide sequence, anti-Gal3 antibody) heavy: QVQLKQSGPGLVQPSQSLSITCTVSGFSLTSYGVHWVRQAPGKGLEWLGVIWSGGSTDYNAAFMSRLSISKDNSKSQVFFKMNSLQADDTAIYYCAKSPDGYDVAWFGYWGQGTLVTVSAASTKGPSVFPLAPCSRSTSESTAALGCLVKDYFPEPVTVSWNSGALTSGVHTFPAVLQSSGLYSLSSVVTVPSSSLGTKTYTCNVDHKPSNTKVDKRV[in this place human IgG4 Fc with S228P (EU numbers)] light: DIVMTQSHKFMSTSVGDRVSITCKASQDVRTAVAWYQQKPGQSPKLLIYWASTRHTGVPDRFTGSGSGTDFTLTLSNVQSEDLADYFCQQYSSYPWTFGGGTKLEIKRTVAAPSVFIFPPSDEQLKSGTASVVCLLNNFYPREAKVQWKVDNALQSGNSQESVTEQDSKDSTYSLSSTLTLSKADYEKHKVYACEVTHQGLSSPVTKSFNRGEC
